Measured values reported in paper PMC12040169 (PLOS Biology, 2025).
Some of the results follow.

The molecules below were run on T1, C. trachomatis L2/434/Bu expressing GFP (CTL2-GFP). Settings: total inclusion area; 28.5 h, 10 µM; inhibitor.
T1 construct: L2/434/Bu GFP intracellular growth in HeLa cells
Design: species or system HeLa; C. trachomatis total inclusion area by high-content imaging, normalised to DMSO
Summary of the method: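 Imaging read-out: GFP inclusions and Hoechst nuclei captured by high-content imaging after fixation. Inclusion area/number = chlamydial growth; nuclei count = host cell viability. MIC calculated per earlier method.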

Structure (SMILES)	% of control remaining
CC1(C)CC(=O)c2sc(NC(=O)c3ccccc3)nc2C1 [CBK287318]	80.3152
COc1ccc2cc(CNc3ccc(F)c([N+](=O)[O-])c3)c(Cl)nc2c1 [CBK295133]	116.263
C1=NC2C(COCc3ccccc3)CCC2N1c1ccccc1 (stereo not shown) [CBK010679]	79.4977
O=C(O)c1cc(-c2ccc3c(c2)OCCO3)nc2ccccc12 [CBK262422]	105.302
COc1ccccc1CN(CCCn1ccnc1)Cc1ccco1 [CBK283116]	75.1225
CCN(CC)CCNc1nc2c(=O)[nH]c(=O)n(C)c2[nH]1 [CBK287918]	70.6
CCOc1cc(C)c(C(C)C)cc1S(=O)(=O)NCCN1CCOCC1 [CBK268727]	122.506
COc1cc2c(cc1OC)C(CCN1CCN(c3ccc(Cl)cc3)CC1)OCC(C)(C)C2 (stereo not shown) [CBK024051C]	57.4013
CC(=O)Nc1ccc(S(=O)(=O)Nc2ccc(C(=O)Nc3ccc(F)cc3)cc2)cc1 [CBK050401]	23.6801
CCN1CCN(c2ccc(NS(=O)(=O)c3ccccc3)c3ccccc23)CC1 [CBK200011C]	99.4776
CCN(CC)C(=O)C1CCCN(C(=O)NCc2ccc(C#N)cc2)C1 (stereo not shown) [CBK156132]	86.7713
O=C1c2ccccc2C(=O)N1CCOc1nccnc1-c1ccsc1 [CBK106760]	90.6527
Clc1ccc(CSc2cccs2)cn1 [CBK002639]	99.7629
COc1ccc2cc(C(=O)NCCCc3ccccn3)n(C)c2c1 [CBK282545]	129.895
O=C(N[C@H]1CCN2C(=O)c3cc(-c4ccccc4F)ccc3NC(=O)[C@H]12)c1cnccn1 [CBK289274]	102.808
CC(C)(C)OC(=O)N1CCCN(Cc2nc(-c3cccnc3)no2)CC1 [CBK305309]	90.3447
OCC1OC(n2cnc3c(Oc4ccccc4)ncnc32)CC1O (stereo not shown) [CBK201181]	87.9814
O=C(Nn1cnnc1)c1ccccc1F [CBK027603]	123.483
CC1=NN(c2ccc(C)cc2)C(=O)/C1=C\Nc1ccc(S(=O)(=O)Nc2nc(C)cc(C)n2)cc1 [CBK262398]	24.9934
O=C(O)c1cccc(NS(=O)(=O)c2ccc(OC(F)(F)F)cc2)c1 [CBK155077]	84.0496
O=C(Cc1ccc(F)cc1)N1CCC(n2cnc3cccnc32)CC1 [CBK283574]	75.8089
c1ccc2nc(N3CCCC3)c(Sc3nc[nH]n3)nc2c1 [CBK115265]	85.8904
OC(CN1CCC(O)(c2ccccc2F)CC1)c1ccc(Cl)cc1 (stereo not shown) [CBK283312]	93.7426
CC(C)n1c(=O)oc2cc(S(=O)(=O)NC(c3ccccc3)c3ccccc3)ccc21 [CBK286350]	79.8552
CC(C)CCN[C@H]1CO[C@H]2[C@@H]1OC[C@@H]2n1nnnc1-c1ccccc1 [CBK289537]	97.0399
CC1(C)CC(=O)C2=C(C1)c1c(ccc3ccccc13)NC2c1ccc(-c2ccc(O)c(C(=O)O)c2)o1 (stereo not shown) [CBK261823]	80.9737
Cc1c(C(=O)Nc2cccc(C(F)(F)F)c2)sc2nc(-c3ccccc3)cn12 [CBK294408]	122.731

Structure (SMILES)	% of control remaining
COc1ccccc1Cc1cccc(C2CCCN2C(=O)CCc2ccccc2)n1 (stereo not shown) [CBK286229]	63.096
O=c1[nH]c2ncc(-c3ccco3)nc2n1CCc1cccnc1 [CBK064494]	100.563
O=c1c2c3c(sc2ncn1CC(O)COc1ccc(F)cc1)CCC3 (stereo not shown) [CBK295191]	67.2484
C[C@@H](Cn1nnc2ccccc21)NC(=O)c1cccs1 [CBK284322]	62.857
CCOC(=O)c1cccc(NS(=O)(=O)c2ccc(-c3ccccc3)cc2)c1 [CBK034341]	85.866
CC(=O)Nc1ccc(N(CC(O)Cn2c3ccccc3c3ccccc32)S(C)(=O)=O)cc1 (stereo not shown) [CBK264352]	117.74
O=C(O)C1CC=CCC1C(=O)Nc1ccc(CN2CCOCC2)cc1 (stereo not shown) [CBK299786]	88.7742
O=S(=O)(Nc1nnc(C(F)(F)F)s1)c1ccc(-c2cc(C(F)(F)F)on2)s1 [CBK062019]	81.6661
Cc1cccc(Cn2c(=O)c3cnc(-c4ccncc4)nc3n(C)c2=O)c1 [CBK288593]	109.76
CNC(=O)CSc1nnc(COc2cccc3ccccc23)n1-c1ccccc1 [CBK266043]	137.39
COCC(=O)N[C@H]1C[C@H]2C(=O)Nc3ccc(/C=C/c4ccccc4)cc3C(=O)N2C1 [CBK289366]	2.445
O=C(c1cccs1)N1CCC(c2nnc3n2CCCCC3)CC1 [CBK284626]	50.4005
Nc1nccn(CCOc2cc(F)c(F)cc2F)c1=O [CBK138204T]	100.508
COC(=O)c1ccccc1NC(=O)CC1Nc2ccccc2NC1=O (stereo not shown) [CBK269276A]	91.1197
CCn1cc(CC(=O)NCCn2ccc(C)n2)c2ccccc21 [CBK282670]	118.396
COc1ccc(-c2nnc3ccc(SC(C)C)nn23)cc1OC [CBK287526]	95.7841
Cc1nonc1NC(=O)CN1CCCCC1 [CBK261839]	103.981
CCn1c(SCC(=O)N2CCC(C(N)=O)(N3CCCCC3)CC2)nnc1-c1ccccc1 [CBK266135]	126.593
O=C1CCN(Cc2ccccc2)CCN1Cc1cccc(F)c1 [CBK284466]	100.067
CCC(=O)NC(NC(=S)Nc1cccc2cccnc12)C(Cl)(Cl)Cl (stereo not shown) [CBK261027]	107.775
O=C(c1ccc2c(c1)C(=O)N(c1ccncc1)C2=O)c1ccc2c(c1)C(=O)N(c1ccncc1)C2=O [CBK261194]	102.666
Cc1ccc(S(=O)(=O)Nc2ccc(C(C)C)cc2)cc1C(=O)O [CBK297766]	106.171
CC(CCN(CCN)C(=O)N1CCC(CNS(C)(=O)=O)(c2ccccc2)CC1)c1ccccc1 (stereo not shown) [CBK002335C]	66.9681
Cc1ccc(C(=O)NC2CCCC2)cc1[N+](=O)[O-] [CBK001993]	43.1495
CC(Sc1ccc(Br)c2cccc(C(=O)O)c12)C(=O)O (stereo not shown) [CBK266226]	96.2315
CC(=O)Nc1ccc(OC(=O)c2ccc(Br)o2)cc1 [CBK293917]	84.1983
CCN(Cc1cnn(C)c1)S(=O)(=O)c1ccc2c(c1)CCCC(=O)N2 [CBK304782]	65.3568

Structure (SMILES)	% of control remaining
O=[N+]([O-])c1cccc(Cn2c(CO)nc3ccccc32)c1 [CBK297515]	103.074
O=C1CCC(=O)N1CCOc1nccnc1-c1ccc2c(c1)OCO2 [CBK106698]	109.366
COc1ccccc1-c1ccc(Nc2ccccc2)nc1 [CBK036909]	104.391
Cc1cccc(CN2CC[C@H]3[C@@H](C2)[C@H](c2ccsc2)CN3C(=O)c2ccc(F)cc2)c1 [CBK285639]	102.728
CC(NC(=O)c1ncoc1-c1ccc(F)cc1)c1cccnc1 (stereo not shown) [CBK282358]	79.2433
Cc1cc(-c2cn3cc(C(=O)N(C)CC(C)O)nc3c(=O)n2C)c(C)o1 (stereo not shown) [CBK307154]	62.4023
CCOC(=O)N1CCCN(C(=O)OCC)CC1 [CBK034324]	10.8773
N#Cc1cccnc1N1CCC(NC(=O)c2ccc3nccn3c2)CC1 [CBK306566]	57.7139
O=C(Cc1ccccc1F)N1CCC(c2cc3cccnc3[nH]2)CC1 [CBK285035]	86.4922
CC(=O)NCCNC(=O)c1ccc(-c2cnc(OCC3CCN(C(=O)OC(C)(C)C)CC3)nc2)cn1 [CBK170023]	46.332
O=C(O)/C=C/C(=O)Nc1ccccc1Br [CBK086488]	112.55
COc1ccc(N(CCC#N)S(=O)(=O)c2cccc3nsnc23)cc1 [CBK025851]	78.66
O=C(CN1CCCCCC1=O)NCC(CO)Cc1ccsc1 (stereo not shown) [CBK306763]	59.6238
CN(Cc1ccc2c(c1)OCO2)C(=O)c1cnn2c(-c3ccccc3)ccnc12 [CBK298276]	90.2776
Cc1cc(C)c(C)c(S(=O)(=O)NCc2ccc(C(=O)Nc3ccncc3)cc2)c1C [CBK267193]	69.9074
CCOC(=O)CCCNC(=O)N1CCCC(C(=O)O)C1 (stereo not shown) [CBK161374]	55.067
c1cnc(-c2ccc3c(c2)OCO3)c(OC2CCCCC2)n1 [CBK106706]	106.869
O=C(c1ccccc1)N1C[C@H](c2ccsc2)[C@H]2CN(Cc3cccs3)CC[C@H]21 [CBK285623]	92.6594
CC(C)(C)C1=CC2=NC3(CCCCC3)[C@@H]3C[C@@H](O)[C@@H](O)[C@@H]3N2O1 [CBK303235]	67.8815
COCC(O)CN(C)C(=O)c1ccc(Oc2cccc(Br)c2)nc1 (stereo not shown) [CBK304229]	22.9331
Cc1[nH]c2ccccc2c1/C=N/c1ccc(/N=C/c2c(C)[nH]c3ccccc23)cc1 [CBK261226]	105.257
Cc1nn(CC(=O)N2CCCCCC2)c(=O)c2cc3occc3n12 [CBK283624]	89.4097
O=S(=O)(Nc1nnn[nH]1)c1ccc(-c2ccccc2)cc1 [CBK062381]	102.647
O=C1CC(c2ccco2)CC(=O)C1=CNCCN1CCN(C(=O)Nc2ccc(Cl)cc2)CC1 (stereo not shown) [CBK264743]	112.8
CCc1nnc2ccc(NCc3ccccc3)nn12 [CBK287888]	55.7137
